Our source for the displacement values is PubChem BioAssay AID1240 (Sanford-Burnham Center for Chemical Genomics, 2008).

The structures appear in SMILES notation. The whole screen tested about 50,000 compounds, of which about 800 (1.6%) showed an effect of 50% or more. This is one part of the list.

The test has as its target Bcl-2-like protein 10 (Homo sapiens) (UniProt Q9HD36). The experiment in a line: TR3 peptide-Bcl-B binding displacers, biochemical primary FP assay, phenotype converters (AID 1240).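 Also: 0% = Bcl-B with tracer peptide and DMSO and 100% = tracer peptide lacking Bcl-B.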 As to conditions: GST-Bcl-B / FITC-TR3 peptide fluorescence polarization; stronger effect = higher value; compound at 3.75 mg/L. A general note: Fluorescence polarisation rises when a labelled molecule tumbles more slowly, as on binding a larger partner.
UniProt Q9HD36, sequence (Q9HD36 whole entry, looked up): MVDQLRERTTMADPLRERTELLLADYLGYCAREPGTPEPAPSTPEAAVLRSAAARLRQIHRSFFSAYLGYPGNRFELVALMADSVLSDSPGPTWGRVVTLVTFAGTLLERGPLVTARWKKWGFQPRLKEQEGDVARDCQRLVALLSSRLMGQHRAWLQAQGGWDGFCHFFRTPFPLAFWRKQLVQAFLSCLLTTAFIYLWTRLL
On to `O=C(Nc1ccc(N2CCOCC2)c(Cl)c1)c1ccc(-c2ccc(F)cc2)o1`, for which the displacement is -17.7%.
For `COc1ccc(NC(=O)CN(c2ccc(C)cc2)S(C)(=O)=O)cc1` the value was -13.8%; for `O=C(O)CSc1ccc(C(F)(F)F)cc1`, 5.4%; for `Nc1cc(NC(=O)c2cccc(Cl)c2)cc(Oc2cccnc2)c1`, -2.4%.
As to `COCCOC(=O)c1c(C)oc2ccc(OC/C=C/c3ccccc3)cc12`, the displacement is 9.3%.
Under `COc1ccc(-c2csc(Nc3ccc(N)cc3)n2)cc1OC` stands -21%; under `COC(=O)c1ccc(/C=C2\SC(=S)N(c3cccc(C(F)(F)F)c3)C2=O)cc1`, -13.2%.
Under `COC(=O)c1c(N)sc2c1CCC(C)C2` (configuration not stated) stands 0.7%; under `CCOc1ccc(C(=O)N2CCN(c3cccc(Cl)c3)CC2)cc1`, 7.8%.
Under `Cc1ccc2nc(-c3ccc(C)c(NC(=S)NC(=O)c4ccccc4Cl)c3)oc2c1` stands 4.5%.
As for `CC(C)OC(=O)c1c(NC(=O)c2ccccc2F)sc2c1CCCCC2`, the displacement is -11.5%.
On to `O=C(CSc1nc(O)c(Cc2ccccc2)c(=O)[nH]1)Nc1cccc2ccccc12`, for which the displacement amounted to 15.3%.
For `O=C1CCCN1c1ccc(S(=O)(=O)Nc2cccnc2)cc1` the value was -13.1%; for `C=C(C)CSc1nnc2n(-c3ccc(C)cc3)c(=O)c3c4c(sc3n12)COC(C)(C)C4`, 8.2%.
Take `O=C(NC(=S)Nc1ccc(N2CCOCC2)cc1)c1ccc(Cl)cc1`: the displacement was -15.1%.
Under `O=C1/C(=C\c2cccc(F)c2)SC(=S)N1Cc1ccccc1` stands 31.9%; under `CCOc1ccc(C(=O)Nc2ccc(N3CCN(C(C)=O)CC3)cc2)cc1[N+](=O)[O-]`, 16.9%; under `CCCC1=C(C(=O)OCC)C(c2ccc3c(c2)OCO3)NC(=O)N1` (configuration not stated), -8.4%.
Under `O=C(NCCCN1CCOCC1)c1ccc(C#Cc2ccccc2)cc1` stands -8%; under `Cc1ccc(-n2nc3cc(C)c(NC(=O)c4ccccc4I)cc3n2)cc1`, 6.7%; under `CC1C2=C(CC(C)(C)CC2=O)OC2=C1C(=O)CC(C)(C)C2`, -5.3%.
For `NS(=O)(=O)c1cccc(NC(=O)c2cccc([N+](=O)[O-])c2)c1` the value was 8.8%; for `CS(=O)(=O)N(CC(=O)NCCc1ccccc1)c1ccc(Cl)cc1`, 13.7%.
On to `CCOC(=O)c1c(N2C(=O)CC(Sc3ccccc3C(=O)O)C2=O)sc(C)c1C` (configuration not stated), for which the displacement worked out at 12.4%.
For `Cc1ccc(/C=C2\SC(=S)N(c3cccc(C)c3C)C2=O)cc1` the value was 14.6%.
For `COc1ccc2c(c1)OCC/C2=N/OC(=O)c1ccccc1SC` the value was 12.4%; for `Oc1ccc(C=NN2CCN(Cc3ccccc3)CC2)cc1`, 0.8%.
Under `O=C1C2CC=C(c3ccccc3)CC2C(=O)N1c1ccc(Br)cc1` (configuration not stated) stands 12.3%; under `COc1ccc(N(CC(=O)Nc2ccccc2Cl)S(=O)(=O)c2ccc(C)cc2)c(OC)c1`, 0.1%.
As to `COc1ccc(N(CC(=O)N2CCCC2)S(=O)(=O)c2ccc(C)cc2)cc1OC`, the displacement came out at 5.9%.
For `CSC1=NC(c2cccc([N+](=O)[O-])c2)C(C(=O)OC(C)C)=C(C)N1` (configuration not stated) the value was -5.5%.
For `NS(=O)(=O)c1ccc(Nc2nnc(-c3ccccc3)c3ccccc23)cc1` the value was -2.3%.
As for `C=CCN1C(=O)/C(=C\c2cn(Cc3ccccc3Cl)c3ccccc23)SC1=S`, the displacement stood at 33.7%.
For `CCN(/C=N/c1sc2c(c1C#N)CCCC2)CC`, the displacement is -4.6%.
Under `Cc1cc2nc(NCCCO)n(CC(=O)c3cc(C(C)(C)C)c(O)c(C(C)(C)C)c3)c2cc1C` stands 12.1%; under `CCOC(=O)c1c(NC(=O)c2ccoc2C)sc2c1CCC(C)C2` (configuration not stated), -2.3%.
For `CCOC(=O)c1ccc(N=Cc2nc(-c3ccccc3)oc2O)cc1` the value was -3.3%.
For `CCOC(=O)C1=C(C)NC(=O)NC1c1ccc(F)c(Br)c1` (configuration not stated) the value was 4.2%.
Regarding `COC(=O)c1ccc2c(c1)C1C=CCC1C(c1ccc(Br)cc1)N2` (configuration not stated), the displacement came to 0.8%.
For `CC(=O)C1=C(O)C(=O)N(CCCC(=O)O)C1c1ccc(F)cc1` (configuration not stated) the value was 7.8%; for `CCOC(=O)C1=C(C)NC(=S)NC1C1CC=CCC1` (configuration not stated), 0.4%.
For `CCOC(=O)c1ccc(NC(=O)CC(=O)Nc2ccc(C(=O)OCC)cc2)cc1` the value was 12.4%; for `Cc1ccc(C2C3=C(CC(C)(C)CC3=O)OC3=C2C(=O)CC(C)(C)C3)cc1[N+](=O)[O-]`, 10.5%; for `N=c1n(CCO)c2ccccc2n1Cc1ccccc1Cl`, -0.8%.
For `COc1ccc(/C(N)=N/OC(=O)c2ccc(Cl)cc2Cl)cc1` the value was 3.3%; for `O=C(Nc1cccc(-c2nc3ccccc3s2)c1)c1cc2ccccc2o1`, -9.3%; for `O=C1N=C(N2CCOCC2)S/C1=C/c1cccs1`, 10%.
Take `O=C(COc1ccc(Cl)cc1Cl)NCc1ccccn1`: the displacement is 1%.
Under `CC12CN3CC(C)(CN(C1)C(=O)c1ccccc1C3=O)C2=O` stands 2.2%; under `CC1=C(C(=O)Nc2ccc(Br)cc2)C(c2ccc(C)cc2)NC(=O)N1` (configuration not stated), -2.5%; under `Clc1ccc(/C=N\N2CCN(C(c3ccccc3)c3ccccc3)CC2)cc1`, -1.3%.
For `O=C(O)CSc1nnc(-c2sc3ccccc3c2Cl)n1-c1ccccc1` the value was 12.2%; for `CCOc1ccc(C(=O)Nc2ccc(C(=O)OC)cc2)cc1[N+](=O)[O-]`, 13.1%.
Under `CCCC(=O)Nc1ccc(NC(=O)c2ccc(-c3ccc(Cl)cc3)o2)cc1` stands 3%.
For the molecule `O=C(CSc1nc2ccccc2[nH]1)N/N=C/c1ccc(Cl)cc1Cl`, the displacement is -3.8%.
Under `CC(=O)NC1=NC(=O)/C(=C\c2ccc(-c3ccc([N+](=O)[O-])cc3C)o2)S1` stands -8.5%; under `C/C(=N\Nc1cc(-c2ccccc2)nc(C)n1)c1ccc(O)cc1`, -7.7%.
Under `C=CCOc1ccc(/C=N/NC(=O)C(=O)NCc2ccccn2)cc1` stands -5.5%; under `COc1ccccc1C/C(N)=N/OC(=O)c1ccco1`, -2.3%.
Under `O=c1c(Cl)c(Cl)cnn1Cc1ccc(Br)cc1` stands -7.5%; under `O=C(Nc1ccc(Cl)cc1)/C(=C\c1cccnc1)NC(=O)c1ccccc1`, -0.3%; under `S=c1[nH]c2ccccc2n1CCOc1ccc(Cl)cc1`, -7%.
Turning to `C/C(=N\NC(=O)c1n[nH]c2c1CCC2)c1ccc(N)cc1`, the displacement is -7.4%.
For the molecule `Cc1ccc(N2C(=O)C3C4C=CC(C5CC45)C3C2=O)cc1C` (configuration not stated), the displacement was -17%.
Under `COc1ccc(C(C)=O)c2c(O)cccc12` stands -1.8%; under `COc1ccc(/C=C2\SC(=NCc3ccccc3)N(Cc3ccccc3)C2=O)cc1OC`, 7.1%.
Under `Cc1ccc(C2=NN(C(=N)SC3CC(=O)N(c4ccc(F)cc4)C3=O)C(c3ccc(Br)cc3)C2)cc1` (configuration not stated) stands -1.3%; under `O=C(Nc1ccc([N+](=O)[O-])cc1)c1cc(Br)ccc1Cl`, -5.9%; under `Cc1ccc(OCC(=O)NNC(=O)COc2ccccc2)cc1`, 11.1%.
For `CCC(=O)Nc1nc(-c2ccccc2)nc(C)c1C(C)=O` the value was -15.4%; for `COc1ccccc1/C=N/N=C1/NC(=O)C(CC(=O)Nc2cccc(C(C)=O)c2)S1` (configuration not stated), 0.6%.
Regarding `CN1C(=O)/C(=C/c2c(Cl)cccc2Cl)SC1=S`, the displacement is 18.4%.
For `CCOc1ccc(N2C(=O)c3ccccc3NC2c2ccc(Br)cc2)cc1` (configuration not stated), the displacement is 6.5%.
With `CS(=O)(=O)N1CCN(c2ccc([N+](=O)[O-])c(Sc3cccc4cccnc34)c2)CC1`, the displacement turned out to be 5.9%.
Under `CCOC(=O)C(C(C)=O)C1=C(c2ccc([N+](=O)[O-])cc2)C(=O)c2ccccc2C1=O` (configuration not stated) stands -21%.
Under `CCOC(=O)C1=NNC2C(=O)N(c3ccc(Cl)cc3Cl)C(=O)C12` (configuration not stated) stands 2.3%.
For `COc1ccc(OC)c(/C=C2\SC(N3CCCCCC3)=NC2=O)c1` the value was -9.2%; for `Cc1ccc(/C=N/NC(=O)C2CC(=O)N(c3ccc(Cl)cc3)C2)cc1` (configuration not stated), -6.2%; for `C=CCSc1nc(N)c2c3c(sc2n1)CCCC3`, -8%.
`Cc1ccc(N2C(=O)S/C(=C/c3ccc4c(c3)OCO4)C2=O)cc1`: the displacement came to 13.8%.
Under `CCC1=NN(C(=O)c2cccc(Br)c2)C(O)(c2ccc(C)cc2)C1` (configuration not stated) stands 6.7%; under `O=C(Oc1ccc(/C=c2/sc3nc4ccccc4n3c2=O)cc1)c1ccc(Br)cc1`, -7.2%.
Under `COc1ccc2c(c1)OCC/C2=N\OC(=O)c1cccc2ccccc12` stands -11.3%; under `COc1ccc(CN(C(=O)c2cccc(F)c2)C2CC(=O)N(c3ccccc3)C2=O)cc1` (configuration not stated), -8%.
For `COc1cc(/C=C2/SC(=Nc3ccccc3Cl)NC2=O)ccc1OC(=O)c1ccccc1` the value was -16%; for `O=C(Nc1ccc2oc(-c3ccc(F)cc3)nc2c1)c1ccccc1I`, -4.8%; for `NC(=O)C1CCN(S(=O)(=O)c2ccc3ccccc3c2)CC1`, -3.2%.
As for `Cc1ccc(S(=O)(=O)Nc2ccccc2C(F)(F)F)cc1`, the displacement was determined as 7.8%.
For `N=c1sc(Cc2cccc(Cl)c2)cn1CC(=O)c1ccc(F)cc1` the value was 8.7%; for `O=C1/C(=C\c2cccc(O)c2)SC(=S)N1c1ccc(F)cc1`, 2.4%.
As for `CC1(C)Cc2c(sc(/N=C/N3CCCCCC3)c2C#N)C(C)(C)N1`, the displacement was -8%.
Under `CC(=O)c1ccc(NC(=S)NC(NC(=O)c2ccc(Br)cc2)C(Cl)(Cl)Cl)cc1` (configuration not stated) stands 11.2%.
`Cc1ccc(C2SCC(=O)N2CCCN(C)C)cc1` (configuration not stated): the displacement is -2.1%.
Consider `CCOCCOC(=O)c1ccc(NC(=O)c2cc3ccccc3o2)cc1`, for which the displacement was -5.2%.
For `COC(=O)C1=C(C)NC(=O)CC1c1ccccc1` (configuration not stated) the value was 3%; for `O=C(Nc1ccccn1)c1sc2cc([N+](=O)[O-])ccc2c1Cl`, 13.1%; for `CCc1cc(C)cc(OCCOc2ccc(/C=c3\sc4nc5ccccc5n4c3=O)cc2)c1`, 13.4%.
For `CC1(C)CC(=O)C2=C(C1)OC1=C(C(=O)CC(C)(C)C1)C2c1ccc(-c2nnc(N)s2)cc1` the value was -3.3%; for `O=[N+]([O-])c1cccc(-n2cccc2/C=N/Nc2nc(N3CCOCC3)nc(N3CCOCC3)n2)c1`, 5.9%.
Take `COc1ccc(OCCNC(=S)Nc2cccc3ccccc23)cc1`: the displacement was -4.5%.
Turning to `O=[N+]([O-])c1cc(Cl)ccc1NCCNS(=O)(=O)c1ccc(Cl)cc1`, the displacement is 9.5%.
Under `N#C/C(=C\c1cccc(O)c1)C(=O)Nc1ccc(F)cc1` stands -6%.
For `CCC(=O)N1c2ccccc2NC2=C(C(=O)CC(c3ccccc3)C2)C1c1ccc(C)o1` (configuration not stated) the value was -5.3%; for `Cc1ccc2nc(NC(=O)c3ccccc3)sc2c1`, -5.2%.
Consider `O=C(O)c1ccc(S(=O)(=O)c2ccc3c(c2)C(=O)N(c2cccc(C(F)(F)F)c2)C3=O)cc1`, for which the displacement came out at 8.5%.
For `O=C(CCc1ccccc1)Nc1ccccc1F` the value was 14%.
Regarding `CC(=O)c1cccc(NC(=O)c2cc(Cl)ccc2[N+](=O)[O-])c1`, the displacement was found to be 29.5%.
